{"source": "PubChem BioAssay AID2147", "about": "(National Center for Advancing Translational Sciences (NCATS), 2009)", "note": "Out of some 230,000 compounds screened, about 3,600 (1.6%) were called active. Inconclusive means that the source gave no clear call. Such entries were picked first, then a sample of the others. Calls come from the whole dose curve; as a rule, active = well fitted inhibition curve with a large enough effect (not every such curve was filed as active); inconclusive = small, poorly fitted or top-dose-only effect, or another doubt; inactive = no such curve, though single readings can be large or run the other way. Potencies of inconclusive entries are doubtful fits and often do not repeat. Note: nearly all actives have a fitted effect of over 50% in size. Potency is the fitted concentration of half-maximal effect; tags give direction and shape of the fitted curve.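 Throughout, for activity change, negative = inhibition: 0% = wells with enzyme and -100% = buffer wells without enzyme.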", "data": [{"target": "Lysine-specific demethylase 4E (Homo sapiens) (UniProt B2RXH2)", "sequence (B2RXH2 whole entry, looked up, the tested form may be a part)": "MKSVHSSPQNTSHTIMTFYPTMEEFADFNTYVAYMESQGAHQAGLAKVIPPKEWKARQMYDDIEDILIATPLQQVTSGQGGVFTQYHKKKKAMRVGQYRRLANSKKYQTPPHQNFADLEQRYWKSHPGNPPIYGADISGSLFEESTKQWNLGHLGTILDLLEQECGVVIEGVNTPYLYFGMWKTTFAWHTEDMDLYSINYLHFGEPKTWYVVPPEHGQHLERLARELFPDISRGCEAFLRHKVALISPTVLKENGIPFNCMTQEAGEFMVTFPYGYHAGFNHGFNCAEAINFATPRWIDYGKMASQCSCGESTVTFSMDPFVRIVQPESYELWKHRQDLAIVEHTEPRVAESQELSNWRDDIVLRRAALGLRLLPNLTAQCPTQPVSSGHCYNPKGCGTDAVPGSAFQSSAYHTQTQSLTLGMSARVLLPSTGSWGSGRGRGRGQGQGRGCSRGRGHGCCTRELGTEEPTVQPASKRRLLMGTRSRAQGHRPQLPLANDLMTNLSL", "assay": "qHTS Assay for Inhibitors of Human Jumonji Domain Containing 2E (JMJD2E)", "settings": "JMJD2E catalytic domain, FDH-coupled NADH fluorescence (FDH is formaldehyde dehydrogenase); series mostly up to 57.1 µM; activity change, negative = inhibition: at the top concentration", "values": [{"smiles": "COc1ccc(/C=C/C(=O)NCC(c2ccc(F)cc2)N2CCOCC2)cc1OC", "note": "(centres undefined)", "Potency": "inconclusive: 22.4 µM [inhibitor, partial curve]"}, {"smiles": "COc1c(O)c(O)cc2c1oc1c3cc(C)ccc3oc(=O)c21", "Potency": "active: 20 µM"}, {"smiles": "CCn1c2ccc(F)cc2c2nc3ccccc3nc21", "Potency": "inconclusive: 39.8 µM [inhibitor, single point]"}, {"smiles": "COc1ccccc1CNCCCCCCNCCCCCCCCNCCCCCCNCc1ccccc1OC", "activity change, negative = inhibition": "inactive: -1.25%"}, {"smiles": "Cc1cc(C)n(-c2ccc3cccc(NS(C)(=O)=O)c3n2)n1", "Potency": "inconclusive: 39.8 µM [inhibitor, single point]"}, {"smiles": "Oc1c(Cl)cc(Cl)cc1/C=N/c1nccs1", "Potency": "inconclusive: 31.6 µM [inhibitor, partial curve]"}, {"smiles": "CCNc1nc(C)c2cc(Br)c(=O)n(CC)c2n1", "Potency": "inconclusive: 20 µM [inhibitor, partial curve]"}, {"smiles": "C(=N\\Nc1nc2ccccc2[nH]1)/c1cccc2cccnc12", "Potency": "active: 25.1 µM"}, {"smiles": "COCCNc1nc(-c2ccc(OC)cc2)c(-c2ccc(OC)cc2)s1", "Potency": "inconclusive: 25.1 µM [inhibitor, single point]"}, {"smiles": "Cc1ccc2[nH]c(=O)c(C(c3nnnn3C(C)(C)C)N3CCN(C(=O)c4ccco4)CC3)cc2c1", "note": "(centres undefined)", "Potency": "inconclusive: 14.1 µM [inhibitor, partial curve]"}, {"smiles": "CCC(=O)N=c1sc2c(C)cc(C)cc2n1CC(=O)OC", "activity change, negative = inhibition": "inactive: -11.7%"}, {"smiles": "CCN(CC)CC(=O)Nc1nn(-c2ccccc2)nc1C(N)=O", "Potency": "inconclusive: 31.6 µM [inhibitor, partial curve]"}, {"smiles": "CCOc1ccc2nc(SCc3ccc(OC)cc3)sc2c1", "activity change, negative = inhibition": "inactive: 3.05%"}, {"smiles": "O=C(O)c1ccc(N/N=C/c2ccc(-c3cccc(Cl)c3)o2)cc1", "Potency": "inconclusive: 28.2 µM [inhibitor, partial curve]"}, {"smiles": "COCCCN1C(=O)C(=O)/C(=C(/O)c2ccc(OC(C)C)c(C)c2)C1c1ccncc1", "note": "(centres undefined)", "activity change, negative = inhibition": "inactive: -23.6%"}, {"smiles": "NC(=S)c1ccc[n+]([C@@H]2O[C@@H](COP(=O)([O-])OP(=O)(O)OC[C@H]3O[C@@H](n4cnc5c(N)ncnc54)[C@H](OP(=O)(O)O)[C@H]3O)C(O)C2O)c1", "note": "(some centres undefined)", "Potency": "inconclusive: 39.8 µM [inhibitor, single point]"}, {"smiles": "CC1Cc2cc(/C(O)=C3/C(=O)C(=O)N(CCCn4ccnc4)C3c3ccco3)ccc2O1", "note": "(centres undefined)", "activity change, negative = inhibition": "inactive: 0.79%"}, {"smiles": "Cc1c(C(=O)O)cccc1N1C(=O)Nc2ccccc2N1O", "Potency": "inconclusive: 35.5 µM [inhibitor, single point]"}, {"smiles": "[O-]/[N+](=C\\c1ccncc1)c1ccc(Br)cc1", "activity change, negative = inhibition": "inactive: -6.27%"}, {"smiles": "CCCCn1c(=NC(=O)c2cccnc2)c(C#N)cc2c(=O)n3cccc(C)c3nc21", "Potency": "inconclusive: 12.6 µM [inhibitor, partial curve]"}, {"smiles": "Cc1ccc(Cn2c(C)cc3c(c2=O)C(c2cccs2)C(C#N)=C(N)O3)cc1", "note": "(centres undefined)", "activity change, negative = inhibition": "inactive: -3.69%"}, {"smiles": "COc1cc2[nH]c(=O)n(CCC(=O)NCc3cccnc3)c(=O)c2cc1OC", "Potency": "inconclusive: 35.5 µM [inhibitor, single point]"}, {"smiles": "COc1ccc2[nH]c(CN3CCN(CCC(C)C)C(CCO)C3)c(C)c2c1", "note": "(centres undefined)", "Potency": "inconclusive: 35.5 µM [inhibitor, single point]"}, {"smiles": "CCCCN(CC)CCCNC(=S)Nc1ccc2nc3n(c(=O)c2c1)CCCCC3", "Potency": "inconclusive: 31.6 µM [inhibitor, single point]"}, {"smiles": "CCN(CC)CCCC(C)n1c(-c2ccccc2)nc2c(NC3CCCCC3)nc(C)nc21", "note": "(centres undefined)", "Potency": "inconclusive: 17.8 µM [inhibitor, partial curve]"}, {"smiles": "Cc1nc2nc(SCC(=O)N3CCOCC3)nn2c(C)c1Cc1c(F)cccc1Cl", "Potency": "inconclusive: 39.8 µM [inhibitor, single point]"}, {"smiles": "CCCCc1nc2c(c3c1C[C@H](C)OC3)CN(S(=O)(=O)c1ccc(NC(C)=O)cc1)CC2", "activity change, negative = inhibition": "inactive: 3.43% [at 11.4 µM]"}, {"smiles": "Cc1ccc2nc(-c3ccc(NC(=O)CCN4C(=O)c5ccccc5C4=O)cc3)sc2c1", "activity change, negative = inhibition": "inactive: -2.29%"}, {"smiles": "Cc1ccc(N=Cc2ccc(N(C)C)cc2)cc1C", "activity change, negative = inhibition": "inactive: -6.95%"}, {"smiles": "N#CC1=C(C2CC2)CC(c2ccccc2)C(C#N)=C1N", "note": "(centres undefined)", "Potency": "inconclusive: 22.4 µM [inhibitor, partial curve]"}, {"smiles": "Oc1ccc(Cl)cc1C1=NNC(c2cccs2)C1", "note": "(centres undefined)", "Potency": "inconclusive: 35.5 µM [inhibitor, single point]"}, {"smiles": "COc1ccc(NC(=O)COC(C)=O)cc1OC", "activity change, negative = inhibition": "inactive: 2.63%"}, {"smiles": "NC(=NCc1ccc2c(c1)OCO2)NC(=O)c1ccccc1", "Potency": "active: 4.47 µM"}, {"smiles": "CN(C)C(=O)N1CCC(C(=O)NCc2ccccc2Cl)CC1", "activity change, negative = inhibition": "inactive: 6.41%"}, {"smiles": "CCC1=C(OC(=O)N(CC)CC)N2C(=O)OC(=NCC3CC3)[C@]2(C)[C@H]2C1=CC[C@H]1C(=O)N(CC)C(=O)[C@H]12", "Potency": "inconclusive: 39.8 µM [inhibitor, single point]"}, {"smiles": "Cc1cnc(NC(=O)CCCc2nc3ccccc3s2)s1", "Potency": "inconclusive: 35.5 µM [inhibitor, single point]"}, {"smiles": "Cc1c(O)c(CN2CCCCC2)cc2c3c(c(=O)oc12)CCC3", "Potency": "inconclusive: 28.2 µM [inhibitor, partial curve]"}, {"smiles": "COc1cc(/C=C(/C#N)C(=O)Nc2ccccc2)ccc1OCc1ccc(C(=O)O)cc1", "activity change, negative = inhibition": "inactive: -25%"}, {"smiles": "Cc1ccc(C(=O)N/N=C/c2ccc(-c3ccccc3[N+](=O)[O-])o2)cn1", "activity change, negative = inhibition": "inactive: -3.91%"}, {"smiles": "CC1/C=C/C=C/C=C/C=C/C=C/C=C/C=C/C(OC2OC(C)C(O)C(N)C2O)CC2O[C@@](O)(CC(O)CC(O)C(O)CCC(O)CC(O)CC(=O)OC(C)[C@H](C)C1O)CC(O)C2C(=O)O", "note": "(some centres undefined)", "Potency": "inconclusive: 25.1 µM [inhibitor, partial curve]"}, {"smiles": "CSc1c(CC(=O)Nc2ccccc2Cl)n(Cc2ccccc2)c2ccccc12", "Potency": "inconclusive: 14.1 µM [inhibitor, partial curve]"}, {"smiles": "CCOC(=O)C1CCCCN1Cc1ccc(OC)c(OC)c1", "note": "(centres undefined)", "Potency": "inconclusive: 25.1 µM [inhibitor, single point]"}, {"smiles": "COc1ccc(S(=O)(=O)Nc2cc(Sc3ncn[nH]3)c(O)c3ccccc23)cc1", "Potency": "inconclusive: 15.8 µM [inhibitor, partial curve]"}, {"smiles": "Cc1ccc(S(=O)(=O)Nc2nc3ccccc3nc2NCC2CCCO2)cc1", "note": "(centres undefined)", "Potency": "inconclusive: 28.2 µM [inhibitor, partial curve]"}]}]}
